In PubChem BioAssay AID624417 (National Center for Advancing Translational Sciences (NCATS), 2012):
About 6,400 (1.6%) of roughly 410,000 compounds were called active. The shares of active, inactive and inconclusive entries below differ from those in the screen. The call rests on the fitted dose curve; in most records, active means well fitted inhibition curve with a large enough effect; inconclusive means small, poorly fitted or top-dose-only effect; inactive means no such curve, though single readings can be large or run the other way. Potencies of inconclusive entries are left out as doubtful fits.
Further: nearly all actives have a fitted effect of over 55% in size.
On the % scale 0 is the no-effect control and ±100 the full control effect; potency means the concentration at half of the fitted maximal effect; tags describe the fitted curve by direction and shape.

What follows are compounds tested against Glucagon-like peptide 1 receptor (Homo sapiens) (UniProt P43220) (assay: qHTS of GLP-1 Receptor Inverse Agonists (Inhibition Mode)). Conditions: HEK293 GLP-1R CRE-luciferase, luminescence, 24 h, GLP-1R form is constitutively active; activity change, negative = inhibition: at 38.3 µM (top of the series) unless noted.
UniProt P43220, sequence (P43220 whole entry, looked up): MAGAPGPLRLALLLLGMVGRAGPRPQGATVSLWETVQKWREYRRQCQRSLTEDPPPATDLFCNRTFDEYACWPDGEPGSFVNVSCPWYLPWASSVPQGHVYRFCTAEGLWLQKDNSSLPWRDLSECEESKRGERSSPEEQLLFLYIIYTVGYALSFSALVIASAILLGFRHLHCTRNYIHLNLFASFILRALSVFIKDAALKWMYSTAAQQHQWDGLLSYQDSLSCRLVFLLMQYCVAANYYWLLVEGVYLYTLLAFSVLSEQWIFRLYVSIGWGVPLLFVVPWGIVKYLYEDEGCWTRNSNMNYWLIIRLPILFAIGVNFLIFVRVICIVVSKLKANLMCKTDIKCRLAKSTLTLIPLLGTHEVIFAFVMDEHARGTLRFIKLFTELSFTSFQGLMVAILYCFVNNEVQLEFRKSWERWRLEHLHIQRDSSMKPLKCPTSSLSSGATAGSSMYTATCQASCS
Summary of the method: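 Assay principle: reduced luminescence from a cAMP-responsive reporter in HEK293 cells co-expressing a constitutively active GLP-1R. Conditions: 24 hr compound incubation, 37 deg C, 5% CO2.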
`COc1ccc(-c2nc3scc(CCNS(=O)(=O)c4ccc5c(c4)OCCO5)n3n2)cc1` was tested, and the “activity change, negative = inhibition” value was inactive: 15.5%.
For `Cc1noc(/C=C/c2ccccn2)c1[N+](=O)[O-]`, the Potency was inconclusive [inhibitor, single point].
For `Cc1ccccc1C(=O)Nc1ccc(C(=O)N/N=C/c2ccc(F)cc2)cc1`, the Potency was inconclusive [inhibitor, partial curve, poor fit].
In the case of `c1ccc2c(-c3ccc(OCCN4CCCCC4)cc3)c(-c3ccsc3)sc2c1`, the Potency is reported as inconclusive [inhibitor, single point].
In the case of `CCN(CC)c1c(C)nc2ccc(C(=O)Nc3cc(-c4ccccc4)ccc3OC)cn12`, the Potency is reported as inconclusive [inhibitor, partial curve, poor fit].
With `COc1ccc(N2CCN(C(=O)c3ccc(COc4ccc([N+](=O)[O-])cc4)o3)CC2)cc1` the Potency was inconclusive [inhibitor, single point].
In the case of `CC(C)n1ncc2c(C(=O)NCCOc3ccccc3F)cc(C3CC3)nc21`, the Potency is reported as inconclusive [inhibitor, single point].
With `COC(=O)[C@@]12C[C@@H](CC(=O)NCC3CCCCC3)C(=O)N(Cc3ccc4c(c3)OCO4)C1=CCC(C)(C)C2` the Potency was inconclusive [inhibitor, partial curve, poor fit].
For `c1ccc(COc2ccc(CNCc3cccs3)cc2)cc1`, the Potency was inconclusive [inhibitor, partial curve, poor fit].
In the case of `Cc1ccc(C(=O)OC(C)C(=O)NC2CCCCC2C)s1` (stereo not given), the Potency is reported as inconclusive [inhibitor, single point].
`O=C(NCc1cccs1)C(=O)NCC(c1ccco1)N1CCN(c2ccccc2F)CC1` (stereo not given) was tested, and the Potency was inconclusive [inhibitor, partial curve, poor fit].
`Cc1cccc(N2CCN(CC(=O)NCc3ccc(Cl)cc3)CC2)c1C` was tested, and the Potency was inconclusive [inhibitor, partial curve, poor fit].
`CC1Cc2cc(S(=O)(=O)N3CCCCC3C)ccc2N1C(=O)C1CCC1` (stereo not given) was tested, and the Potency was inconclusive [inhibitor, single point].
With `O=C(CC1CC2CCC1C2)Nc1nc(-c2ccccn2)cs1` (stereo not given) the “activity change, negative = inhibition” value was inactive: -5.62%.
For `CC(=O)N1CCc2c(sc3c2c(=O)n(CCc2ccccc2)c(=O)n3Cc2ccccc2C)C1`, the Potency was inconclusive [inhibitor, partial curve, poor fit].
For `O=C(Nc1ccc(F)cc1)C1CCCN(S(=O)(=O)c2ccc3[nH]c(=O)ccc3c2)C1` (stereo not given), the “activity change, negative = inhibition” value was inactive: 9.15%.
In the case of `O=C(CO/N=C/c1ccc(OC(F)F)cc1)NC1CCCCCC1`, the Potency is reported as inconclusive [inhibitor, partial curve, poor fit].
In the case of `O=C(C[C@H]1C/C=C\CC[C@H](Cc2ccc(F)cc2)C(=O)O[C@@H](c2ccccc2)CNC1=O)N[C@@H](CO)Cc1ccccc1`, the Potency is reported as inconclusive [inhibitor, partial curve, poor fit].
With `O=C(N/C(=C\c1ccc([N+](=O)[O-])cc1)C(=O)N1CCCCC1)c1ccco1` the Potency was inconclusive [inhibitor, single point].
With `Cc1ccc(C)c(-c2ccc(=O)n(Cc3c(F)cccc3Cl)n2)c1` the Potency was inconclusive [inhibitor, single point].
With `COc1ccc(NC(=O)CSc2nc(-c3cccc(C)c3)[nH]c2-c2ccccc2)cc1OC` the Potency was inconclusive [inhibitor, single point].
For `Cc1cc(C)c2c(c1)c(C)cc1nnc(SCc3ccccc3C#N)n12`, the “activity change, negative = inhibition” value was inactive: 2.19%.
For `C=C1CCN(c2ccc(C(=O)NCCC)cc2[N+](=O)[O-])CC1`, the “activity change, negative = inhibition” value was inactive: -6.79%.
`CC1=C(C(=O)Nc2ccc(Cl)cc2)C(c2ccccc2)n2ncc(C(=O)Nc3ccccc3)c2N1` (stereo not given) was tested, and the Potency was inconclusive [inhibitor, partial curve, poor fit].
`Cc1cccc(N2CCN(S(=O)(=O)c3ccc4c(c3)NC(=O)CS4)CC2)c1C` was tested, and the Potency was inconclusive [inhibitor, single point].
`COCCCn1c(C23CC4CC(CC(C4)C2)C3)n[nH]c1=S` was tested, and the Potency was inconclusive [inhibitor, partial curve, poor fit].
In the case of `CCOC(=O)c1c(C)n(C)c2ccc(O)c(CN(CC)CC)c12`, the “activity change, negative = inhibition” value is reported as inactive: 6.82%.
For `Cc1ccc(NC(=O)CN2C(=O)COc3ccc(S(=O)(=O)NC4CCCC4)cc32)cc1N(C)C`, the Potency was inconclusive [inhibitor, partial curve, poor fit].
With `Cc1ccc(C)c(Cn2c(=O)c3c(nc4n3CCN4c3ccccc3)n(C)c2=O)c1` the “activity change, negative = inhibition” value was inactive: 2.69%.
With `COc1cc(Cl)c(S(=O)(=O)N2CCN(Cc3ccc4c(c3)OCO4)CC2)cc1Cl` the Potency was inconclusive [inhibitor, partial curve, poor fit].
`CCOC(=O)C1CCCN(C(=O)c2ccc3oc(CCc4ccccc4)nc3c2)C1` (stereo not given) was tested, and the Potency was inconclusive [inhibitor, single point].
With `O=C1C=C(c2ccc3[nH]ccc3c2)C[C@@H](c2ccc(F)cc2)C1` the Potency was inconclusive [inhibitor, single point].
With `O=c1c(-c2ccccc2)c[nH]n1-c1cccc([N+](=O)[O-])c1` the Potency was inconclusive [inhibitor, single point].
For `COc1ccc(NC(=O)c2ccc3c(c2)NC(=O)CS3)cc1S(=O)(=O)Nc1ccc(Br)cc1`, the Potency was inconclusive [inhibitor, partial curve, poor fit].
`Cc1cc(/C=N/N2CCN(C)CC2)c(C)n1-c1ccc(Cl)cc1` was tested, and the Potency was inconclusive [inhibitor, single point].
With `Cc1cccn2c(=O)c3cc(C#N)c(=O)n(-c4nnc(SCc5ccc(Cl)cc5)s4)c3nc12` the “activity change, negative = inhibition” value was inactive: 4.31%.
With `Cn1c(=O)c2cc(NC(=S)NCc3ccccc3F)ccc2n1Cc1ccccc1` the “activity change, negative = inhibition” value was inactive: -5.91%.
With `CCOc1ccc(Cn2c(=O)sc3ccccc32)cc1` the Potency was inconclusive [inhibitor, single point].
`COC(=O)/C(=C\Nc1ccc(Cl)cc1Cl)NC(=O)c1ccccc1` was tested, and the Potency was inconclusive [inhibitor, single point].
In the case of `COc1ccccc1NC(=O)CN1CCN(CC(=O)Nc2ccc(C)c(F)c2)CC1`, the Potency is reported as inconclusive [inhibitor, partial curve, poor fit].
In the case of `CC1(C(=O)Nc2cccc3c2CCCC3)CCN1C(=O)C1(c2ccccc2)CC1` (stereo not given), the Potency is reported as inconclusive [inhibitor, partial curve, poor fit].
In the case of `O=C(N/N=C/c1ccc2c(c1)OCO2)c1ccc(NC(=O)c2ccc(F)cc2)cc1`, the Potency is reported as inconclusive [inhibitor, single point].
With `COc1ccc(N2CCN(CC(O)COC(c3ccccc3)c3ccccc3)CC2)cc1` (stereo not given) the Potency was inconclusive [inhibitor, partial curve, poor fit].
In the case of `COc1ccc(-c2cn(-c3ccc(C)cc3)c(=O)n2CC(=O)Nc2ccc(OC)c(OC)c2)cc1`, the Potency is reported as inconclusive [inhibitor, partial curve, poor fit].
For `Cc1cccc(C)c1NC(=O)CS(=O)(=O)c1nc(-c2ccc(Cl)cc2)cn1-c1ccccc1`, the Potency was inconclusive [inhibitor, partial curve, poor fit].
With `Clc1ccc(CN(CC2CCCO2)C(c2cccs2)c2nnnn2C2CCCC2)cc1` (stereo not given) the Potency was inconclusive [inhibitor, single point].
With `COc1ccc(OC)c(NC(=O)CNC(=O)Cn2c(C)cc3ccccc3c2=O)c1` the Potency was inconclusive [inhibitor, full curve, poor fit].
With `CC(C)(C)C(=O)Nc1nc(-c2ccccc2)ns1` the Potency was inconclusive [inhibitor, single point].
In the case of `COc1cc(C2c3cc4c(cc3OC(NCCc3ccccc3)C2C)OCO4)cc(OC)c1OC` (stereo not given), the Potency is reported as inconclusive [inhibitor, full curve, poor fit].
For `O=C(CSc1nnc(Nc2ccccc2)s1)Nc1ccc(S(=O)(=O)N2CCOCC2)cc1`, the Potency was inconclusive [inhibitor, single point].
With `COc1cc(CNC(=O)c2ccc3c(c2)c(C)c(C)n3Cc2cccc(C)c2)cc(OC)c1OC` the Potency was inconclusive [inhibitor, partial curve, poor fit].
In the case of `NC(=S)NN=Cc1nccc2ccccc12`, the Potency is reported as inconclusive [inhibitor, full curve, poor fit].
`COc1cc(NC(=O)c2ccc3snnc3c2)cc(OC)c1` was tested, and the “activity change, negative = inhibition” value was inactive: 4.68%.
In the case of `COc1ccc(Nc2nnc(-c3ccc(C)cc3)c3ccccc23)cc1C(=O)N1CCCCC1`, the Potency is reported as inconclusive [inhibitor, partial curve, poor fit].
For `N/C(=N\OC(=O)COc1ccccc1Cl)c1ccc(Cl)cc1`, the Potency was inconclusive [inhibitor, single point].
`c1ccc(CN=C2NN=C(c3cc4ccccc4o3)CS2)cc1` was tested, and the “activity change, negative = inhibition” value was inactive: 21.9%.
In the case of `O=C(NNC(=O)c1ccco1)c1ccccc1`, the “activity change, negative = inhibition” value is reported as inactive: -12.4%.
For `O=C(NCCC1=CCCCC1)c1ccc(Cl)c(S(=O)(=O)Nc2ccccc2)c1`, the Potency was inconclusive [inhibitor, single point].
`O=C1NC(=Nc2ccccc2Cl)S/C1=C\c1cccc([N+](=O)[O-])c1O` was tested, and the Potency was inconclusive [inhibitor, single point].
`O=C(NCCc1ccc(Cl)cc1)c1ccc(CS(=O)(=O)c2ccc(Cl)cc2)o1` was tested, and the Potency was inconclusive [inhibitor, partial curve, poor fit].
